Here are results for 77 compounds from ChEMBL document CHEMBL1201862, “PubChem BioAssay data set” (2004).

“And” between values parts separate entries of the source, which are not always exact repeats. Equal values may be shown once.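 All cell lines were grown in 96-well plates and treated with compound for 48 hours. GI50 is the concentration that inhibits growth by half.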 The source made the active and inactive calls. Rule as the data show it: active = GI50 up to about 1.1 µM and inactive = higher. A value given as a limit tells only on which side of the number the result lay.

The test system of the assay is NCI-H322M. The assay can be described thus: NCI tumour cell line growth inhibition, 48 h.
For the compound `O=C(O)CCCCn1cnc2c(S)ncnc21`, the GI50 is inactive: > 100 µM. The same measure for `CC1CN=C(Nc2ccccc2)S1` (configuration not stated): inactive: > 100 µM; for `COc1cc(NCC2COc3c(ccc(OC)c3OC)C2=O)c([N+](=O)[O-])cc1OC` (configuration not stated): inactive: > 100 µM; for `O=c1[nH]/c(=C/c2ccc3c(c2)OCO3)c(=O)[nH]/c1=C/c1ccc2c(c1)OCO2`: inactive: > 10 µM. The same measure for `N#Cc1c(N2CCCC2)nsc1Nc1ccc(F)cc1`: inactive: > 100 µM.

As to `Cc1ccc2c(=O)c3c(O)c4c(cc3n(C)c2c1)OC(C)(C)C=C4`, the GI50 is inactive: > 10 µM.

With `O=C(OC(=C(c1ccccc1)c1ccccc1)N1CCCC1=S)C(c1ccccc1)c1ccccc1`, the GI50 was inactive: 6.22 µM. The figure for `CN(C)/C=N/c1ccc2[nH]c3ccccc3c2c1` is inactive: 43.7 µM; for `C=C(c1ccccc1)[C@@]1(O)CCCC[C@H]1NC(c1ccccc1)c1ccccc1` it is inactive: 16.2 µM. The figure for `C=C1C(=O)O[C@@H]2/C=C(\C)CC/C=C(\C)CC[C@@]12O` is inactive: 13.9 µM; for `CC1(C)CC(=O)C2=C(C1)OC1=C(CC(C)(C)CC1=O)C2c1ccccc1[N+](=O)[O-]` (configuration not stated) it is inactive: > 100 µM. The same measure for `C[C@H](c1ccccc1)N1C(=O)[C@@H](O)[C@H]1[C@H](CO)OCc1ccccc1`: inactive: > 100 µM; for `COc1ccc(C(=O)Sc2c(-c3ccccc3)c(=O)n(-c3ccccc3)c(=S)n2-c2ccccc2)cc1`: inactive: > 100 µM. As to `COc1cc2c(cc1OC)C(C(=O)c1cccc(OC)c1OC)C(=O)N(C)CC2` (configuration not stated), the GI50 was inactive: > 100 µM. The same measure for `COC(=O)CCC(=O)N1CC1C` (configuration not stated): inactive: > 100 µM.

Take `C[C@]12CC[C@H]3[C@@H](CC=C4C[C@@H](N5CCCC5)CC[C@@]43C)[C@@H]1C[C@H](N1CCOCC1)[C@@H]2O`: the GI50 is inactive: 96.2 µM. The same measure for `CC1=C(C)C(=O)c2c(cc3c4ccccc4ccn23)C1=O`: inactive: > 100 µM.

Take `CC(C(N)C(=O)NC(C(=O)O)C1OC(n2ccc(=O)[nH]c2=O)C(O)C1O)C(O)c1ccc(O)cn1` (configuration not stated): the GI50 is inactive: > 100 µM. The figure for `CN(C(=O)C12C3C4C1C1C2C3C41C(O)C(C)(C)C)C(C)(C)C` (configuration not stated) is inactive: > 100 µM; for `C=CCN1C(=O)/C(=C/c2ccc(Cl)cc2)N=C1SC1OC(COC(C)=O)C(OC(C)=O)C(OC(C)=O)C1OC(C)=O` (configuration not stated) it is inactive: 28.4 µM and inactive: 23.2 µM; for `CCN(CC)CCCNc1c2cc(OC)ccc2nc2cccc([N+](=O)[O-])c12` it is active: 0.149 µM. The figure for `COC(=O)c1ccccc1C1CN=NC12Cc1c(ccc3c1CCC3)C2=O` (configuration not stated) is inactive: > 100 µM; for `Cc1c(-c2cc3n(n2)C(c2cccs2)C(C#N)=C(c2ccccc2)N3)c(=O)n(-c2ccccc2)n1C` (configuration not stated) it is inactive: > 100 µM.

Take `O=c1c2ccc3cccc4c(=O)cc(c5ccccc15)-c2c34`: the GI50 is inactive: > 100 µM. Consider `COC(=O)c1c2c(cc3c1CC1(Cc4cc5c(cc4C1)CCC5)C3)CCC2`, for which the GI50 is inactive: > 100 µM.

As for `Oc1c(C2=N[C@H]3CCCC[C@@H]3N2)ccc2ccccc12`, the GI50 is inactive: > 100 µM. `Cc1ccc(C(=O)/C=C2\Nc3cccnc3NC2=O)cc1`: the GI50 was inactive: > 100 µM.

`C/C=C1\Oc2ccc(OC)cc2S1(=O)=O`: the GI50 was inactive: > 100 µM. Consider `N#Cc1nc(/C=C/c2ccccc2)oc1N`, for which the GI50 is inactive: > 100 µM.

For the compound `CN(C)CCONC(=O)C12CC3CC(CC(C3)C1)C2`, the GI50 is inactive: > 100 µM.

On to `Cc1cc(NS(=O)(=O)c2ccc(Nc3c4ccccc4nc4c(C(=O)Nc5ccc(S(=O)(=O)N=C(N)N)cc5)cccc34)cc2)no1`, for which the GI50 was inactive: > 100 µM. On to `Cn1c(CO)ccc1-c1ccc(-c2ccc[se]2)[se]1`, for which the GI50 is inactive: 24.2 µM. With `CN(CCCN(C)CCc1ccc(Cl)c(Cl)c1)CCCN1CCCC1`, the GI50 was inactive: 1.71 µM. The figure for `Cc1ccc(S(=O)(=O)N/N=C/c2oc(-c3ccncc3)c(-c3ccncc3)c2[N+](=O)[O-])cc1` is inactive: > 100 µM. The figure for `COC(=O)C1=C(C)NC(C)=C(C(=O)OC)C1c1ccccc1NO` is inactive: > 100 µM; for `CC1CC[C@@]2(OC1)OC1C[C@H]3[C@@H]4CC[C@H]5CC(OC6OC(CO)C(OC7OC(CO)C(O)C(O)C7O)C(O)C6O)CCC5(C)[C@H]4CCC3(C)C1[C@@H]2C` (some centres not stated) it is inactive: 9.02 µM. The same measure for `CC(=O)NC(CCCCNC(=O)N(CCCl)N=O)C(=O)NCc1ccccc1` (configuration not stated): inactive: > 100 µM; for `Clc1c(Cl)c2c(Cl)c(Cl)c1C[PH](c1ccccc1)(c1ccccc1)CC[PH](c1ccccc1)(c1ccccc1)Cc1c(Cl)c(Cl)c(c(Cl)c1Cl)C[PH](c1ccccc1)(c1ccccc1)CC[PH](c1ccccc1)(c1ccccc1)C2`: inactive: 3.53 µM. For `CC1(C)CC2(C)CC1CC2NC(=O)CCN1CCOCC1` (configuration not stated), the GI50 is inactive: > 100 µM. The same measure for `N=C(N)NCCCCCCC(=O)NC(O)C(=O)NCCCCNCCCN` (configuration not stated): inactive: > 750 µM; for `Cc1ccc(NC(=O)CC/C(CC(=O)C(C)(C)C)=N/NC(=O)C[N+](C)(C)C)cc1C`: inactive: > 100 µM. Turning to `Cc1ccc([N+](=O)[O-])cc1NC(=O)C(=O)C(C(=O)c1ccccc1F)C1OC(=O)c2ccccc21` (configuration not stated), the GI50 was inactive: 36.1 µM.

Take `CC(C)(C)C1CC[C@H](O)[C@H]([C@H](O)CC2CC(=O)N(c3ccccc3)C(=O)C2)C1` (some centres not stated): the GI50 was inactive: > 100 µM. The same measure for `COc1cc(/C=C2\N=C(c3ccccc3)N(c3cc4cc(Sc5ccccc5)ccc4[nH]3)C2=O)ccc1O`: inactive: > 50 µM; for `CCC(=O)n1c(=O)n(-c2ccc([N+](=O)[O-])cc2)c(=O)n1C(=O)CC`: inactive: > 100 µM. With `CCOC(=O)c1nc2cc(F)cc(F)c2[nH]c1=O`, the GI50 is inactive: > 100 µM. The figure for `COc1cc(C(C)O)c(S(=O)(=O)CC(C)O)nn1` (configuration not stated) is inactive: > 100 µM; for `OCC(O)CNc1ncnc2ccccc12` (configuration not stated) it is inactive: > 100 µM; for `c1ccc2c(c1)SCCCSCCSCCCS2` it is inactive: > 100 µM. With `Clc1c(C(Cl)(Cl)Cl)nsc1N1CCCCC1`, the GI50 is inactive: 32.8 µM.

`CC(C)c1cc(Cl)nc(Cl)n1`: the GI50 is inactive: > 100 µM. For the compound `CC[C@](C)(O)C(=O)O[C@H]1C(=O)O[C@@H]2C[C@H]3C(C)=C[C@H](O)[C@@H](O)[C@]3(C)[C@H]3[C@@]4(O)OC[C@]32[C@@H]1[C@@H](C)[C@H]4O`, the GI50 was inactive: 99.8 µM. The same measure for `COC(=O)c1c(C(=O)OC)c(C(c2ccccc2)c2ccccc2)n(-c2ccccc2)c1Cl`: inactive: > 10 µM. The figure for `CC12CCC(C(Nc3cc(C(F)(F)F)cc(C(F)(F)F)c3)C1=O)C2(C)C` (configuration not stated) is inactive: > 100 µM. For the compound `Cc1cccc(/N=N/c2ccc(/N=N/c3c(O)ccc4ccccc34)cc2C)c1`, the GI50 is inactive: > 100 µM. The figure for `CCc1cccc(C(C)C)c1NC(=O)C(=O)C1C(=O)NC(=O)NC1=O` is inactive: > 100 µM; for `CN(C)C(=S)/N=c1\ss/c(=N\C(=S)N(C)C)n1-c1ccc(Cl)c(Cl)c1` it is inactive: > 100 µM. The same measure for `C=CCC(O[Si](C)(C)C(C)(C)C)c1cc(O[Si](C)(C)C(C)(C)C)ccc1OC` (configuration not stated): inactive: > 100 µM; for `C=C1CC[C@@H]2[C@](C)(COC(=O)CCC(=O)OC)CCC[C@@]2(C)[C@@H]1CCC1=CC(=O)OC1`: inactive: > 100 µM. The same measure for `C/C(=N\O)c1cccc(Nc2nc3ccccc3c3occc23)c1`: inactive: 13.2 µM; for `COc1ccccc1NC1Oc2cc3c(cc2C(c2cc(OC)c(OC)c(OC)c2)C1C)OCO3` (configuration not stated): inactive: 5.87 µM.

`Cc1ccc(-c2cc(-c3ccc(Cl)cc3)nc(/N=C3\C(=O)N(CN4CCCCC4)c4ccc(Cl)cc43)n2)cc1`: the GI50 is inactive: 64.4 µM.

For the compound `FC(F)(Sc1ncc[nH]1)c1nc2ccccc2o1`, the GI50 is inactive: > 100 µM. The figure for `CCOC(=O)[C@@H]1ON2O[C@@H](OC3CCCC3(c3ccccc3)c3ccccc3)C[C@H]3OC(=O)[C@@H]1C32` (some centres not stated) is inactive: 45.5 µM. `COC(=O)c1ccccc1C1CN=NC12Cc1c(C)cccc1C2=O` (configuration not stated): the GI50 is inactive: > 100 µM.

For `O=C1C2=C(c3ccccc31)C(c1ccccc1Cl)NC(S)=N2` (configuration not stated), the GI50 is inactive: > 100 µM. On to `CC1OC(CC2C=CCc3c(O)c4c(c(O)c32)C(=O)c2ccccc2C4=O)CC(NC(=O)C(F)(F)F)C1O` (configuration not stated), for which the GI50 was inactive: 5.86 µM. On to `CNC(=S)N/N=C(\C)c1ccc(OC)cc1O`, for which the GI50 was inactive: > 100 µM. The figure for `COC(=O)C1Cc2c([nH]c3ccccc23)-c2[nH]c3ccccc3c2CC(NC(C)=O)C(=O)N2CCCC2C(=O)N1` (configuration not stated) is inactive: > 100 µM; for `CCOC(=O)C(NC(=O)c1ccccc1)(Nc1ccc(S(=O)(=O)Nc2ccc(OC)nn2)cc1)C(F)(F)F` (configuration not stated) it is inactive: > 100 µM; for `COc1ccc(C2(O)C(S(=O)(=O)c3ccc(C)cc3)=Cc3ccc(OC)cc32)cc1` (configuration not stated) it is inactive: 41.3 µM. The same measure for `COC1=C(C)C(=O)c2c(cc3c(c2O)C(C)(CCC=C(C)C)C(C)O3)C1=O` (configuration not stated): inactive: 19.2 µM; for `COP(=O)(OC)C(Nc1ccc(Cc2ccc(NC(c3ccco3)P(=O)(OC)OC)cc2)cc1)c1ccco1` (configuration not stated): inactive: 27.9 µM.

`Cc1ccc(/N=N\c2c(O)c(S(=O)(=O)O)cc3cc(S(=O)(=O)O)ccc23)c(C)c1`: the GI50 is inactive: > 100 µM. The same measure for `O=C(O)Cc1cccc2c(=O)c3ccccc3oc12`: inactive: > 100 µM; for `C=C1C(=O)O[C@H]2C3OC3(C)CC/C=C(/C(=O)OC)[C@@H](OC(C)=O)[C@H](OC(=O)C3(C)OC3C)[C@H]12` (some centres not stated): inactive: 5.93 µM; for `COc1cc(/C=C2\[C@@H]3NC(Cc4c(OC)c(C)c(OC)c(OC)c43)C(=O)N2Cc2ccccc2)c(OC)c(C)c1OC`: inactive: 80.5 µM.
